Test results as given in PubChem BioAssay AID1347417 (National Center for Advancing Translational Sciences (NCATS), 2020).
Screen size: about 120,000 compounds; about 5,300 (4.4%) were called active. The shares of active, inactive and inconclusive entries below differ from those in the screen. Calls come from the whole dose curve; as a rule, active = well fitted inhibition curve with a large enough effect; inconclusive = small, poorly fitted or top-dose-only effect; inactive = no such curve, though single readings can be large or run the other way. A potency beside an inconclusive call is a rough fit, not a confirmed value. The source holds several records for some structures; these can differ, active in one and inactive in another.

Assay: qHTS Primary assay for Inhibitors of Plasmodium falciparum Dd2 growth in vitro; note: nearly all actives have a fitted effect of over 65% in size
Details: P. falciparum Dd2 growth, SYBR Green, 72 h; series mostly up to 28.9 µM
Method in brief: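 Readout: SYBR Green fluorescence, 485 nm excitation, 535 nm emission, after ~16 h lysis at 37C. Before that, Dd2-infected red cells (2.5% hematocrit) grew 72 h with compound, 29 uM top final concentration.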
Potency is the fitted concentration of half-maximal effect; tags give direction and shape of the fitted curve.

Row | Structure (SMILES) | Potency
1 | Cc1cccc(C)c1-c1nc(C(=O)N2CCN(c3ncccn3)CC2)n2ccccc12 | active: 12.6 µM
2 | COc1ccc(N2CC(C(=O)N(C)C)NC2=O)cc1 (stereo not drawn) | inactive
3 | CCCCN(CC)CCNC(=O)Cn1cc2c(n1)-c1c(oc(C(=O)N3CCCC3)c1C)CC2 | inconclusive: 17.8 µM [inhibitor, single point]
4 | CC1(c2noc(C3CC3)n2)CCN(C(=O)CCC(=O)N2CC(=O)Nc3ccccc32)CC1 | inconclusive: 8.91 µM [inhibitor, partial curve, poor fit]
5 | CC(=O)N1CCCc2cc(S(=O)(=O)N3CCC(C(=O)NCc4cccc(C)c4)CC3)ccc21 | inconclusive: 11.2 µM [inhibitor, single point]
6 | COCCN1C(=O)N(CCc2ccccc2)C(=O)C12CCN(C/C=C/c1ccccc1)CC2 | inconclusive: 11.2 µM [inhibitor, single point]
7 | O=C(c1ccc(CSc2nc3ccncc3n2Cc2cccc(F)c2)cc1)N1CCCCCC1 | active: 8.91 µM
8 | Cc1cncn1CCc1nc2c3ccccc3nc(SCC(=O)Nc3cccc(Cl)c3)n2n1 | inconclusive: 0.891 µM [inhibitor, single point]
9 | O=C1NCCOCCCN(S(=O)(=O)c2cccc(F)c2)[C@H]2CCC[C@@H]12 | inconclusive: 11.2 µM [inhibitor, partial curve, poor fit]
10 | O=C(Cn1c(-c2cccs2)cc2ccccc21)NCCc1ccc(Cl)cc1 | inconclusive: 12.6 µM [inhibitor, single point]
11 | COC(=O)C(C)Sc1ncnc2c1c(-c1ccccc1)cn2-c1ccc(F)cc1 (stereo not drawn) | active: 5.62 µM
12 | CCOc1ccc(S(=O)(=O)Nc2ccc3c(c2)N(C(C)=O)CCC3)cc1 | inconclusive: 8.91 µM [inhibitor, partial curve]
13 | Cc1cccc(C)c1-n1ncc(C(=O)N2CCN(c3ccccc3)CC2)c1C1CCN(C(=O)OC(C)(C)C)CC1 | inconclusive: 10 µM [inhibitor, single point]
14 | O=C(Cc1ccccc1)Nc1cccc(-c2cn3cccnc3n2)c1 | inconclusive: 10 µM [inhibitor, partial curve, poor fit]
15 | COc1cccc(CN2CCCCCCNC(=O)[C@@H]3CCC[C@@H]32)c1OC | inconclusive: 3.98 µM [inhibitor, partial curve, poor fit]
16 | COc1ccc(OC)c(NC(=O)c2c(NCc3cccs3)sc3c2CCCC3)c1 | inconclusive: 11.2 µM [inhibitor, single point]
17 | Clc1ccc(C2Cn3nnc(-c4noc(COc5ccccc5)n4)c3CO2)cc1 (stereo not drawn) | inconclusive: 1.26 µM [inhibitor, partial curve, poor fit]
18 | COCCN1C(=O)c2[nH]nc(-c3cc(C)ccc3O)c2C1c1ccc(C(C)C)cc1 (stereo not drawn) | active: 8.91 µM
19 | COc1cccc(N2CC(C(=O)N3CCC(C(=O)NCCc4ccc(Cl)cc4)C3)NC2=O)c1 (stereo not drawn) | inconclusive: 8.91 µM [inhibitor, single point]
20 | O=C1NCC2(CCN(Cc3ccc(F)cc3)CC2)Oc2ccccc21 | inactive
21 | OC[C@@H]1CNC[C@H]1C1CCN(Cc2cccc(Cl)c2)CC1 | inactive
22 | O=C1Nc2ccccc2C12CN(Cc1ccc(F)cc1)C2 | inconclusive: 22.4 µM [inhibitor, single point]

Row | Structure (SMILES) | Potency
23 | Cc1ccccc1OCC(O)Cn1c(=N)n(CCN2CCCCC2)c2ccccc21 (stereo not drawn) | active: 2.82 µM
24 | Cc1nc2cc(C(=O)N3CCN(c4ccccc4C#N)C(=O)C3)ccc2s1 | inactive
25 | Cc1ccc(-c2nnc(Nc3cccc(O)c3)c3ccccc23)cc1S(=O)(=O)N1CCN(C)CC1 | active: 10 µM
26 | CN(C)c1ccc(CN2CCC3(CC2)COc2ccccc2C(=O)N3)cc1 | active: 1.12 µM
27 | CCc1cccc(CC)c1NC(=O)CN1C(=O)C(=O)c2ccccc21 | inactive
28 | Cc1ccc(Nc2nnc(-c3ccc(C)c(S(=O)(=O)NCc4nc5ccccc5[nH]4)c3)c3ccccc23)cc1 | inconclusive: 17.8 µM [inhibitor, single point]
29 | O=C1N(Cc2ccccn2)C[C@H]2CN(Cc3cccc(OC(F)(F)F)c3)CCN12 | inactive
30 | Cc1ccc(OCc2nc3ccccc3n2CCOc2ccc(Cl)cc2)cc1 | inconclusive: 12.6 µM [inhibitor, single point]
31 | O=C(c1ccco1)c1cn(CCOc2ccc(F)cc2)c2ccccc12 | active: 1.26 µM
32 | CC1CCCCN1c1nnc(NC(=O)Nc2ccccc2F)s1 (stereo not drawn) | inconclusive: 10 µM [inhibitor, single point]
33 | CC(C)c1noc(-c2cccn3c(CNC(=O)c4ccc(F)cc4Cl)nnc23)n1 | inconclusive: 0.891 µM [inhibitor, partial curve]
34 | CC1(CCCCN2CCOCC2)COc2ccc(C(=O)Nc3cccc(Cl)c3)cc2N1 (stereo not drawn) | inconclusive: 10 µM [inhibitor, single point]
35 | CC(C)(C)c1ccc(C(=O)NCc2nnc3c(-c4nc(C5CC5)no4)cccn23)cc1 | inconclusive: 2.24 µM [inhibitor, full curve, poor fit]
36 | CC(C)(C)CN[C@H]1C[C@@H](Cc2cc(COc3ccccc3)on2)C1(C)C | inconclusive: 3.55 µM [inhibitor, partial curve, poor fit]
37 | COC(=O)c1ccc(NC(=O)c2cc(=O)c3ccc(C)cc3o2)cc1 | inactive
38 | CCOCCOC1CCN(C(=O)CCc2c[nH]c3ccccc23)CC1 | inactive
39 | OC[C@@H]1CNC[C@H]1C1CCN(Cc2ccc(F)c(F)c2)CC1 | inactive
40 | O=C(C1CC1)N1CCC2(CC1)CC(N(Cc1ccc(F)cc1)C1CC1)CCO2 (stereo not drawn) | inconclusive: 5.62 µM [inhibitor, partial curve, poor fit]
41 | Cc1cc(C(=O)NC2CCCc3c2[nH]c2c(Cl)cccc32)c2c(C)noc2n1 (stereo not drawn) | inactive
42 | O=C1N(CCc2ccccc2)c2ccccc2C12CCN(CC1CC1)C2 (stereo not drawn) | inconclusive: 25.1 µM [inhibitor, single point]
43 | Fc1ccccc1CN1CC[C@H](c2nnc(Cc3ccccc3)o2)C1 | inconclusive: 11.2 µM [inhibitor, single point]
